# Data as given in PubChem BioAssay AID504444 (National Center for Advancing Translational Sciences (NCATS), 2011).
# Among all 360,000 compounds or so, about 7,500 (2.1%) were called active. About 20% were inconclusive and are not listed. Calls follow the shape of the dose curve; as a rule, active = well fitted inhibition curve with a large enough effect; inconclusive = small, poorly fitted or top-dose-only effect, or effect the other way; inactive = flat fitted curve, though single readings scatter. This is a selection; strong and weak results do not stand in their true shares. Where a structure was tested more than once in an assay, its records may differ in their call.
# Test: Nrf2 qHTS screen for inhibitors; also: nearly all actives have a fitted effect of over 60% in size
# Settings: A549 ARE-Fluc reporter, luciferase luminescence, 18-24 h; series mostly up to 46 µM; activity change, negative = inhibition: at the top concentration
# In short: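 Concentration-response testing used A549 ARE_Fluc cells at 5000 cells/well. Following an 18-24 h compound incubation, viability was read by fluorescence (Ex 405/Em 525) and luciferase output by luminescence.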
# % is scaled to controls: 0 for no effect and ±100 for the full control effect; potency is read from the fitted curve at half-maximal effect.
Structure (SMILES),"activity change, negative = inhibition",Potency
CCOC(=O)C1=C(Nc2ccccc2)CC(C)(O)C(C(=O)OCC)C1c1ccc(Cl)cc1 (stereo not drawn),inactive: -21.4%,–
C[C@@H](C(=O)NCc1ccccc1)[C@@H]1C[C@@]1(C)[C@@H](NC(=O)OCc1ccccc1)c1ccccc1,inactive: -7.73%,–
CCC(C)Nc1nc(C)nc2c1oc1ccccc12 (stereo not drawn),–,active: 20.6 µM
CCc1nnc(NC(=O)c2cccc(C(=O)Nc3nnc(CC)s3)n2)s1,–,active: 0.259 µM
COc1cc(NC(=O)c2nn(C)c3c2CS(=O)(=O)c2ccccc2-3)cc(OC)c1,inactive: -9.63%,–
CCOC(=O)[C@H]1[C@H]2COc3ccc(Br)cc3[C@H]2N2C(=O)CN(Cc3ccc(Cl)cc3)C(=O)[C@@]12C,–,active: 25.9 µM
COC(=O)C1=C(C(=O)OC)[C@@H]2N(Cc3ccccc3)c3ccccc3[C@@]23C[C@@H](C(=O)OC)N(C(=O)c2cc(C)oc2C)C3=N1,–,active: 23.1 µM
O=C(O)c1ccc(NCc2nc3ccccc3n2CCOc2ccccc2Cl)cc1,inactive: -6.88% [at 9.27 µM],–
COCCn1c(=O)[nH]c2cc(C(=O)N3CCN(c4ccc(Cl)cc4)CC3)ccc2c1=O,inactive: -25.1% [at 9.27 µM],–
COc1ccc(C(F)(F)F)cc1N/C=C\c1nnnn1-c1ccc(C)cc1,inactive: 9.89%,–
C[C@]12C(=O)N(c3cccc(F)c3)C(=O)N1[C@@H]1c3ccccc3OC[C@@H]1[C@H]2c1ccccc1,inactive: 2.53%,–
CC(=O)C[C@@H](O)CC(=O)[C@@H]1OC(=O)[C@@H](C)C/C=C\Cc2ccccc21,inactive: 17.5%,–
COc1ccc(NC(=O)C2CCCN(S(=O)(=O)c3c(C)n[nH]c3C)C2)cc1OC (stereo not drawn),inactive: -9.14%,–
C[C@H]1CCC[C@@]2(O[C@H](CCO)C[C@H](O)[C@H]2O)O1,inactive: 3.06%,–
CCOCCCNC(=O)c1cc2c(=O)n3ccccc3nc2s1,inactive: 24%,–
CC(=O)N1CCN(c2ccc(NCc3cccc(C)c3)cc2)CC1,–,active: 14.6 µM
O=C1NCCOC(=O)[C@H](Cc2ccc(F)cc2)C/C=C\C[C@H]1CC(=O)N(CCO)Cc1ccccc1,inactive: -15.4%,–
CCN1/C(=C2/OC(=S)N(C)C2=O)Sc2ccccc21,inactive: 4.53%,–
COc1ccc(/C=C/c2ccccc2)cc1[C@H]1[C@H]2C=CC[C@@H](C)[C@@H]2C(=O)N1Cc1ccccc1,inactive: 10.9%,–
CCCCN(CCCC)S(=O)(=O)c1ccc(NC(=O)c2cccs2)cc1,–,active: 18.4 µM
Cc1ccccc1S(=O)(=O)Cc1ccc(C(=O)NC2CCCCC2)o1,inactive: 8.92%,–
CCOC(=O)[C@@H]1[C@H]2COc3cc(OC)ccc3[C@@H]2N2C(=O)N(c3ccc(F)cc3)C(=O)[C@]12C,inactive: -10.1%,–

Structure (SMILES),"activity change, negative = inhibition",Potency
COc1ccc(NC(=O)CCS(=O)(=O)c2cccc3nonc23)cc1Cl,inactive: -6.58% [at 9.27 µM],–
COc1ccc(NS(=O)(=O)c2cc([N+](=O)[O-])ccc2N/N=C\c2c(C)[nH]c3ccccc23)cc1,inactive: -12.5%,–
O=C(Nc1cccc(NC(=O)c2ccc(Br)o2)c1)c1ccccc1,inactive: -2.86%,–
CC1=C(CC(=O)O)c2cc(F)ccc2/C1=C\c1ccc(S(C)=O)cc1 (stereo not drawn),inactive: 3.06%,–
Cc1ccc(NS(=O)(=O)c2ccc3c(c2)NC(=O)CCS3)cc1C,inactive: 0.866%,–
C[C@@H]1CCC[C@@]2(O[C@@H](CCO)C[C@@H](O)[C@@H]2O)O1,inactive: -19.8%,–
Cc1cccc(NC(=O)C2CCN(S(=O)(=O)c3ccc4ccccc4c3)CC2)n1,–,active: 16.4 µM
O=C1N[C@H](Cc2ccccc2)COC(=O)[C@H](Cc2ccc(F)cc2)C/C=C\C[C@@H]1CC(=O)N(CCO)Cc1ccccc1,inactive: -7.6%,–
CCOc1ccc(-c2noc(CSc3nnc(Cc4ccccc4)n3-c3cccc(C)c3)n2)cc1,–,active: 25.9 µM
CCN1C(=O)[C@H]2[C@@H](c3ccc(SC4CCCCC4)cc3)N3CCCC[C@@]3(C(=O)OC)[C@H]2C1=O,inactive: -2.82%,–
C/C=C1\COC(C(=O)NCc2cccc(OC)c2OC)(C(F)(F)F)C=C1C=C1CCCCC1 (stereo not drawn),inactive: -26.8%,–
C=CCC[C@H](Cc1ccc(F)cc1)C(=O)OC[C@@H](Cc1c[nH]c2ccccc12)NC(=O)[C@@H](CC=C)CC(=O)N[C@H](CO)Cc1ccccc1,inactive: -14.4%,–
C=Cc1c(C)c2cc3[nH]c(cc4nc(cc5nc(cc1[nH]2)C(C)=C5CCC(=O)O)C(CCC(=O)O)=C4C)c(C)c3C=C,inactive: 0.964%,–
CCOc1ccc(S(=O)(=O)N2CCC(C(=O)N3CCCCCC3)CC2)cc1C,–,active: 18.4 µM
O=C(Nc1nnc(S(=O)(=O)Nc2ccccc2)s1)c1ccccc1Cl,inactive: -7.35%,–
COc1ccc2c(c1OC)C(=O)OC2C1c2c(cc3c(c2OC)OCO3)CCN1C (stereo not drawn),–,inactive
O=S(=O)(c1ccc2c(c1)OCCO2)N1CCCN(S(=O)(=O)c2c(F)cccc2F)CC1,inactive: -11.9%,–
O=C(COc1ccccc1)Nc1nnc(S(=O)(=O)N2CCCC2)s1,inactive: -2.43%,–
COC(=O)c1cc2sccc2n1Cc1nc(-c2ccc(Cl)cc2)oc1C,inactive: 6.25%,–
CCc1ccc2oc(C(=O)Nc3nonc3CC)c(C)c2c1,inactive: 0.717%,–
CSc1ccc2c(c1)C(N1CCN(C)CC1)Cc1ccccc1S2 (stereo not drawn),inactive: -12.5%,–
